Experimental findings from PMC4299142 are described below.

One experiment has as its target T1, GST-AIP1-2 (Arabidopsis) (UniProt Q9LV35).
T1 sequence: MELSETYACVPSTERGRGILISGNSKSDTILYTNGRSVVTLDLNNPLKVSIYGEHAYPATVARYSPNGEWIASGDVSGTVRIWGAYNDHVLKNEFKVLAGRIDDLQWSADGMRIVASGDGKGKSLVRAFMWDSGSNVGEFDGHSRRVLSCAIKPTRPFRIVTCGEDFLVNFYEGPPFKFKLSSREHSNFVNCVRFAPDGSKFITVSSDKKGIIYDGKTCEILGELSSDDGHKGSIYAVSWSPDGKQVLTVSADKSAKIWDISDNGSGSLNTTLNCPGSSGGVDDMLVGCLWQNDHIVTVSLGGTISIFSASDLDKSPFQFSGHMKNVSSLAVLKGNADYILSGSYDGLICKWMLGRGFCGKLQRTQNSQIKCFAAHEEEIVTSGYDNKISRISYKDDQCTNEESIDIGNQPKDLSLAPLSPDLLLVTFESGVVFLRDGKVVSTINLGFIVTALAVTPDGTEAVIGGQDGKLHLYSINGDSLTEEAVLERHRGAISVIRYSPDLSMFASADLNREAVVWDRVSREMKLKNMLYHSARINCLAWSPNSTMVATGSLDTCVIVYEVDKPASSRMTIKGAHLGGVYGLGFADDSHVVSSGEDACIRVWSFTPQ
Nature of the experiment: pull-down; GST fusion from bacterial extract bound to 40 µl glutathione sepharose, incubated with 300 µl bacterial extract containing 6×His-ACT2 or 6×His-ACT7; western blot; only the target purified.

Experiment [1] has as its target T2, AIP1-1, fusion for pairwise two-hybrid (Arabidopsis) (UniProt Q9ZU34).
T2 sequence: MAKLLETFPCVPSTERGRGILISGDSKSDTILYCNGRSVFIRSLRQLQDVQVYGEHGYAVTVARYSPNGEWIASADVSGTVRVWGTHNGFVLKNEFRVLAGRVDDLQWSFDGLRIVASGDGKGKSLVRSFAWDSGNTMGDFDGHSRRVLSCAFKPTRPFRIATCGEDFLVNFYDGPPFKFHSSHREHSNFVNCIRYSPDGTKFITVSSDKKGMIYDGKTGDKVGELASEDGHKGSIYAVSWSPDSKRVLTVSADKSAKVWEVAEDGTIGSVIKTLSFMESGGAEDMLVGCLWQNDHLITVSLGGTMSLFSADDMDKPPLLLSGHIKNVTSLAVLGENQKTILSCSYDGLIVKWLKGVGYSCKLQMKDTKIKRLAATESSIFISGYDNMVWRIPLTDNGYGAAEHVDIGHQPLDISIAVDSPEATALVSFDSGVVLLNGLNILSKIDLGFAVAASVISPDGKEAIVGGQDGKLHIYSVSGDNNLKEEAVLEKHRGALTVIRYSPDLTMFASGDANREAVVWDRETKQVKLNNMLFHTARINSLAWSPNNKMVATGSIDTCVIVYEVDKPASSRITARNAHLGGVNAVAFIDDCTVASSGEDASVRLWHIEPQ
In words: two-hybrid; pairwise, LexA-based interaction trap; bait vector pMG8 (pEG202 derivative), prey vector pMG5 (pJG4-5 derivative, B42 AD); yeasts grown for 24 or 48 h.

Experiment [2] concerns the target T3, truncated form of AIP1-1 (ΔAIP1-1), lacking the first 137 amino acids (Arabidopsis) (UniProt Q9ZU34).
T3 sequence: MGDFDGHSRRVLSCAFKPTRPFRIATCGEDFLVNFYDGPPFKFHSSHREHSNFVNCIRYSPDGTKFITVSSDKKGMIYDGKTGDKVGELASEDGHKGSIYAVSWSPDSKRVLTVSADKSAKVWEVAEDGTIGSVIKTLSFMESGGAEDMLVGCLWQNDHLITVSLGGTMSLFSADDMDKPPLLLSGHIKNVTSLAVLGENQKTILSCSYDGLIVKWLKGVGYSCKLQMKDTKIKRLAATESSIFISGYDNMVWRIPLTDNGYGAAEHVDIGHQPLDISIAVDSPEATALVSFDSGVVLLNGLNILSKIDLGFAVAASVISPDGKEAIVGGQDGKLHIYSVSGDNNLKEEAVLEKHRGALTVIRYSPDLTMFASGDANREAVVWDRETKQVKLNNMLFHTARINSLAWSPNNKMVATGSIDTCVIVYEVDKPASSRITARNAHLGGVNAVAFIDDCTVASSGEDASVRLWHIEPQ
The experiment is described as above.

Experiment [3] concerns the target T4, ACTIN-… PROTEIN1-2 (AIP1-2), LexA or B42 AD fusion for pairwise two-hybrid (Arabidopsis) (UniProt Q9LV35).
T4 sequence: T1 sequence
The description is as above.

Experiment [4] concerns the target ACTIN7 (ACT7), LexA or B42 AD fusion for pairwise two-hybrid (Arabidopsis) (UniProt P53492). The experiment is described as above.
For experiment [5], the target named is ACT2, fusion for pairwise two-hybrid (Arabidopsis) (UniProt Q96292). Described as above.
Experiment [6] has as its target ACT8, fusion for pairwise two-hybrid (Arabidopsis) (UniProt Q96293). Described as above.
Experiment [7] has as its target ACT1, fusion for pairwise two-hybrid (Arabidopsis) (UniProt P0CJ46). Described as above.
The target of experiment [8] is ACTIN7 (ACT7), full-length bait of the Hybrigenics two-hybrid screen (Arabidopsis) (UniProt P53492). In words: two-hybrid; screen at Hybrigenics (ULTImate Y2H): full-length ACT7 bait against a one-week-old Arabidopsis seedling cDNA expression library.

These are yes or no findings as the source states them, for the method shown. For some of these results: Binding seen in cells or lysates may run through a third protein. Some binding calls cover weakened binding; strength is not graded here. For some of these results: Where a sequence is shown, tags or fusion partners need not be part of it.

With 6×His-ACT2 (from UniProt Q96292 1-377), the binding entry with GST-AIP1-2 (Arabidopsis) is given as “binds”.
Turning to 6×His-ACT7 (from UniProt P53492 1-377), in the experiment with GST-AIP1-2 (Arabidopsis), the binding result was “binds”.
Regarding “ACT1, fusion for pairwise two-hybrid (from UniProt P0CJ46 1-377)”, the results for the binding result in experiment [1], in experiment [2] and in experiment [3] were “binds”, “no binding” and “binds”, respectively.
“ACT2, fusion for pairwise two-hybrid (from UniProt Q96292 1-377)”: the binding entry in experiment [1] was “binds”; in [2] it was “no binding”; in experiment [4], “binds”; in [3], “binds”.
With “ACT8, fusion for pairwise two-hybrid (from UniProt Q96293 1-377)”, the binding entry in experiment [1] is listed as “binds”; in [2] it was “no binding”; in experiment [4], “binds”; in experiment [3], “binds”.
In the case of “ACTIN7 (ACT7), LexA or B42 AD fusion for pairwise two-hybrid (from UniProt P53492 1-377)”, the binding entry in experiment [2] is recorded as “no binding”; in [3], “binds”.

B1: truncated form of AIP1-1 (ΔAIP1-1), lacking the first 137 amino acids (domain or fragment, UniProt Q9ZU34 138-611)
chain: T3 sequence
Consider B1, for which the binding entry in experiment [5], in experiment [6], in experiment [4] and in experiment [7] was “no binding” throughout.

B2: AIP1-1, fusion for pairwise two-hybrid (protein, UniProt Q9ZU34 1-611)
chain: T2 sequence
For B2, the binding result in [4] is on record as “binds”.

B3: ACTIN-… PROTEIN1-2 (AIP1-2), full-length cDNA clones from the seedling library (protein, UniProt Q9LV35 1-609)
chain: T1 sequence
For B3, in experiment [8], the binding result is reported as “binds”.

B4: ACTIN-… PROTEIN1-2 (AIP1-2), LexA or B42 AD fusion for pairwise two-hybrid (protein, UniProt Q9LV35 1-609)
chain: T1 sequence
Regarding B4, the binding result in experiment [4] is listed as “binds”.
